# Test results reported in PubChem BioAssay (Tox21).
# “And” between values parts separate entries of the source, which are not always exact repeats. Identical values can stand only once. This list was built around the results that the source calls inconclusive (neither active nor inactive); the mix of calls is not that of the screen. For part of these data: A potency beside an inconclusive call is a rough fit, not a confirmed value. The source made the active and inactive calls. Unless noted, calls follow the shape of the dose curve; as a rule, active = well fitted curve in the direction sought with a large enough effect in the repeat runs; inconclusive = weak or mixed curves; inactive = no such curve, though single readings can be large; an effect the other way counts as inactive or inconclusive.
# Experiments:
# [1] = qHTS assay to identify small molecule antagonists of the estrogen related receptor (ERR) signaling pathway (AID 1224819; also: nearly all actives have a fitted effect of over 50% in size; also: potency is read from the fitted curve at half-maximal effect; as to activity change, negative = inhibition: % is scaled to controls: 0 for no effect and ±100 for the full control effect)
# Outline: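 Seed ERR cells 2,000/well; rest 6 h at 37 C/5% CO2; pin compounds in DMSO; incubate 18 h at 37 C; add One-Glo; wait 30 min at room temperature; measure luminescence.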
# [2] = qHTS assay to identify small molecule agonists of the estrogen related receptor signaling pathway with the pleiotropic PPARgamma coactivator (PGC) (AID 1224823); also: potency is read from the fitted curve at half-maximal effect
# Outline: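 Luminescence from One-Glo reagent (30 min, room temperature) was read after 18 h compound treatment at 37 C of PGC/ERR cells plated 6 h beforehand; compounds delivered in DMSO by pin tool.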
# [3] = qHTS assay for identifying genotoxic compounds that show differential cytotoxicity against isogenic chicken DT40 cell lines with known DNA damage response pathways - Rad54/Ku70 mutant cell line (AID 743015); settings: DT40 Rad54/Ku70 mutant viability, CellTiter-Glo, 40 h; activity change, negative = cytotoxicity: at 66.8 µM (top of the series) unless noted; also: % is scaled to controls: 0 for no effect and ±100 for the full control effect; nearly all actives have a fitted effect of over 60% in size
# [4] = biological target: Peroxisome proliferator-activated receptor gamma (Homo sapiens) (UniProt P37231); assay: qHTS assay to identify small molecule antagonists of the peroxisome proliferator-activated receptor gamma (PPARg) signaling pathway (AID 743191; calls by dose curve; also: % is scaled to controls: 0 for no effect and ±100 for the full control effect; nearly all actives have a fitted effect of over 30% in size); settings: HEK293H PPARg-UAS-bla, beta-lactamase ratio, antagonist, 17 h; ratio activity, negative = inhibition: at 62.6 µM (top of the series) unless noted
# Outline: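 Beta-lactamase reporter under UAS control in HEK293H PPARg-bla cells; compound treatment 17 h at 37C. Read-out: fluorescence intensity after 1 h room-temperature incubation with LiveBLAzer B/G FRET substrate.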
# [5] = qHTS assay for small molecule agonists of the antioxidant response element (ARE) signaling pathway (AID 743202; active = well fitted activation curve with a large enough effect in the signal ratio in the repeat runs, not every such curve was filed as active; inconclusive = weak or mixed curves, or effect the other way; inactive = no such curve, though single readings can be large or run the other way; the % refers to the signal ratio; also: % is scaled to controls: 0 for no effect and ±100 for the full control effect); settings: HepG2 ARE-bla reporter, beta-lactamase FRET, 16 h; activation: at 73.3 µM (top of the series) unless noted
# Outline: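 After 16 hours of compound treatment at 37 C, HepG2 cells with a stably integrated ARE-driven beta-lactamase reporter were loaded 2 hours at room temperature with LiveBLAzer B/G FRET substrate and fluorescence intensity measured.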
# [6] = qHTS assay to identify small molecule antagonists of the peroxisome proliferator-activated receptor delta (PPARd) signaling pathway - cell viability counter screen (AID 743213); settings: PPARd-bla HEK293H viability, CellTiter-Glo luminescence, 17 h; viability change, negative = cytotoxic: at 62 µM (top of the series) unless noted; also: % is scaled to controls: 0 for no effect and ±100 for the full control effect; nearly all actives have a fitted effect of over 50% in size
# Outline: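 In this counter screen, HEK293H cells carrying a UAS-beta-lactamase reporter are co-treated with test compounds and 300 nM L165041 (final) for 17 h at 37 C; cell viability is quantified by CellTiter-Glo luminescence.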
# [7] = system: estrogen-related receptor alpha (ERRalpha) with PGC-1alpha coactivator, human; assay: qHTS assay to identify small molecule antagonists of the estrogen related receptor signaling pathway with the pleiotropic PPARgamma coactivator (PGC) (AID 1224821; calls by dose curve; also: nearly all actives have a fitted effect of over 50% in size; also: potency is read from the fitted curve at half-maximal effect;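 as to activity change, negative = inhibition: % is scaled to controls: 0 for no effect and ±100 for the full control effect; lower luminescence signal means antagonism of PGC/ERR signalling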)
# Outline: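 Luminescence from One-Glo luciferase reagent (30 min, room temperature) measured after 18 h compound treatment at 37 °C. Cells carry the PGC/ERR reporter and were seeded 6 h prior to dosing.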
# [8] = qHTS RealTime-Glo MT Cell Viability Assay in HEK293 cells - 16 hour (AID 1224872); also: top concentration of the series differs between compounds; % is scaled to controls: 0 for no effect and ±100 for the full control effect; nearly all actives have a fitted effect of over 50% in size
# Outline: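 Luminescence generated by NanoLuc from substrate produced by living HEK293 cells served as the viability signal. Each value reflects the reading at its stated time point during continuous 40 h compound exposure at 37 C.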
# [9] = biological target: Estrogen receptor beta (Homo sapiens) (UniProt Q92731); assay: qHTS assay to identify small molecule agonists of the estrogen receptor beta (ER-beta) signaling pathway (AID 1259377; active = well fitted activation curve with a large enough effect in the signal ratio in the repeat runs, not every such curve was filed as active; inconclusive = weak or mixed curves, or effect the other way; the % refers to the signal ratio; also: % is scaled to controls: 0 for no effect and ±100 for the full control effect); settings: ER-beta-UAS-bla HEK293T, beta-lactamase FRET ratio, 16 h; activation: at 92.4 µM (top of the series) unless noted
# Outline: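 A UAS-controlled beta-lactamase reporter in ER-beta-UAS-bla HEK293T cells reports receptor activation. Compounds act for 16 hr at 37C in 2% charcoal-stripped serum, and a FRET substrate is read by fluorescence after 2 hours.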
# [10] = qHTS assay to identify small molecule agonists of the progesterone receptor (PR) signaling pathway - cell viability counter screen (AID 1346799; calls by dose curve; also: potency is read from the fitted curve at half-maximal effect; nearly all actives have a fitted effect of over 45% in size)
# Outline: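 Counter screen for cytotoxicity: compound-treated PR-UAS-bla HEK293T cells (16 hr, 37C, 5% CO2) were assayed with CellTiter-Glo, luminescence measured after 30 min at room temperature.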
# [11] = qHTS assay to identify small molecule antagonists of the estrogen related receptor signaling pathway with the pleiotropic PPARgamma coactivator (PGC) cell viability counter screen (AID 1224822;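 also: potency is read from the fitted curve at half-maximal effect; viability read after 17.5 h compound exposure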)
# Outline: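 17.5 h compound treatment of PGC/ERR cells at 37 C; readout CellTiter-Fluor fluorescence; run alongside the PGC/ERR antagonist screen to flag cytotoxic compounds.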
# [12] = qHTS assay for identifying genotoxic compounds that show differential cytotoxicity against isogenic chicken DT40 cell lines with known DNA damage response pathways - Rev3 mutant cell line (AID 743014); settings: chicken DT40 Rev3-/- viability, CellTiter-Glo, 40 h; activity, negative = cytotoxicity: at 68.4 µM (top of the series) unless noted; also: potency is read from the fitted curve at half-maximal effect; nearly all actives have a fitted effect of over 55% in size
# [13] = biological target: Peroxisome proliferator-activated receptor gamma (Homo sapiens) (UniProt P37231); assay: qHTS assay to identify small molecule agonists of the peroxisome proliferator-activated receptor gamma (PPARg) signaling pathway (AID 743094; active = well fitted activation curve with a large enough effect in the signal ratio in the repeat runs, not every such curve was filed as active; inconclusive = weak or mixed curves, or effect the other way; inactive = no such curve, though single readings can be large or run the other way; the % refers to the signal ratio; also: % is scaled to controls: 0 for no effect and ±100 for the full control effect); settings: HEK293H PPARg-UAS-bla, beta-lactamase FRET ratio, 17 h; activation: at 57 µM (top of the series) unless noted
# Outline: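 Agonism was assessed in a beta-lactamase reporter system, HEK293H cells with a stably integrated UAS-bla construct under PPARg control; the 17 h treatment at 37C preceded a 1 h room-temperature FRET substrate read.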
# [14] = qHTS assay for small molecule agonists of the p53 signaling pathway (AID 651631; calls by dose curve; also: % is scaled to controls: 0 for no effect and ±100 for the full control effect; nearly all actives have a fitted effect of over 15% in size); settings: HCT-116 p53RE-bla reporter, beta-lactamase FRET ratio, 16 h
# Outline: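 HCT-116 p53RE-bla reporter line, 16 h compound treatment at 37 °C, then fluorescence after 2 h with B/G FRET substrate.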
# [15] = qHTS assay for small molecule agonists of the p53 signaling pathway - cell viability (AID 651633; calls by dose curve; also: potency is read from the fitted curve at half-maximal effect; nearly all actives have a fitted effect of over 30% in size)
# Outline: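 Viability counter-read: CellTiter-Glo luminescence (30 min, room temperature) in the same p53RE-bla plates. These plates had been exposed to compounds for 16 h at 37 C.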
# [16] = qHTS assay for identifying genotoxic compounds that show differential cytotoxicity against isogenic chicken DT40 cell lines with known DNA damage response pathways - wild type cell line (AID 743012); settings: DT40 wild type chicken cells viability, CellTiter-Glo, 40 h; activity change, negative = cytotoxicity: at 68.4 µM (top of the series) unless noted; also: potency is read from the fitted curve at half-maximal effect; nearly all actives have a fitted effect of over 60% in size
# Outline: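 Viability of DNA repair-proficient chicken DT40 cells was assessed by CellTiter-Glo luminescence following 40 h compound exposure at 37 C/5% CO2.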
# [17] = qHTS assay to identify small molecule antagonists of the androgen receptor (AR) signaling pathway using the MDA cell line - cell viability counter screen (AID 743041; also: potency is read from the fitted curve at half-maximal effect; nearly all actives have a fitted effect of over 45% in size); settings: MDA-kb2 viability, CellTiter-Fluor, 16 h, cells co-treated with R1881 androgen agonist; viability change, negative = cytotoxic: at 70.3 µM (top of the series)
# Outline: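 Viability read by CellTiter-Fluor fluorescence in the same wells as the antagonist screen, added after 15.5 h of a 16 h, 37C exposure. Human breast carcinoma MDA-kb2 AR-luc cells, compounds co-dosed with agonist R1881.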
# [18] = qHTS assay to identify small molecule antagonists of the thyroid receptor (TR) signaling pathway (AID 743065); also: potency is read from the fitted curve at half-maximal effect; nearly all actives have a fitted effect of over 55% in size
# Outline: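 Antagonism measured as loss of luciferase signal in GH3 cells stably carrying a TRE-luciferase reporter, co-treated with compound and T3 (1 nM final) for 23.5 h at 37 C. Viability was read in the same well by CellTiter-Fluor.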
# [19] = qHTS assay to identify small molecule antagonists of the estrogen receptor alpha (ER-alpha) signaling pathway - cell viability counter screen (AID 743074; calls by dose curve;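 also: HEK293 cells carrying ER-alpha-UAS-bla reporter stimulated with 17beta-estradiol; % is scaled to controls: 0 for no effect and ±100 for the full control effect; nearly all actives have a fitted effect of over 45% in size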)
# [20] = biological target: Estrogen receptor (Homo sapiens) (UniProt P03372); assay: qHTS assay to identify small molecule agonists of the estrogen receptor alpha (ER-alpha) signaling pathway using the BG1 cell line (AID 743079); settings: BG1Luc4E2 cells, ERE-luciferase agonist, 22 h; activation: at 70.3 µM (top of the series) unless noted; also: potency is read from the fitted curve at half-maximal effect; nearly all actives have a fitted effect of over 20% in size
# [21] = qHTS assay to identify small molecule antagonists of the estrogen receptor alpha (ER-alpha) signaling pathway using the BG1 cell line (AID 743080; calls by dose curve; also: potency is read from the fitted curve at half-maximal effect; nearly all actives have a fitted effect of over 25% in size); settings: BG1Luc4E2 ERE-luciferase antagonist mode, luminescence; activity change, negative = inhibition: at 70.3 µM (top of the series) unless noted
# Outline: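 Antagonist mode: compounds in DMSO were pinned onto BG1-Luc-4E2 cells alongside 17beta-estradiol agonist, incubated 21.5 h, and ERE-driven luciferase measured with ONE-Glo. Cytotoxicity was multiplexed using CellTiter-Fluor fluorescence.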
# Tags tell the direction and shape of the fitted curve.
# Sequence of UniProt P03372 (P03372 whole entry, looked up): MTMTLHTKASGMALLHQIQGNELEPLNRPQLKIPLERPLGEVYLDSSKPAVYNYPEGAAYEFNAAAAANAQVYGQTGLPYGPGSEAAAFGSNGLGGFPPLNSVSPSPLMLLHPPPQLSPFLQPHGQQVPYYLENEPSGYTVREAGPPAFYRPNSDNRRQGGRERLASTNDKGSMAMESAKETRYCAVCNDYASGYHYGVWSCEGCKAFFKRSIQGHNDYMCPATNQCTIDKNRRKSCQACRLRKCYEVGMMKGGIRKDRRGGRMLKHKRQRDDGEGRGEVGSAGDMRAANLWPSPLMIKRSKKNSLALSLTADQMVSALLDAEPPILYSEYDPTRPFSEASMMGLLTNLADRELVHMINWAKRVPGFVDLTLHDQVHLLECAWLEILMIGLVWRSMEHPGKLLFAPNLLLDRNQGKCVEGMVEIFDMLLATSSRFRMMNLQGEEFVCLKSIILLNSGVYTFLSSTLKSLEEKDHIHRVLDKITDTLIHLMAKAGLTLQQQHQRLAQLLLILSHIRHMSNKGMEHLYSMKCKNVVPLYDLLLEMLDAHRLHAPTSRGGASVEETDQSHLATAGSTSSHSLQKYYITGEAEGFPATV
# Sequence of UniProt P37231 (P37231 whole entry, looked up): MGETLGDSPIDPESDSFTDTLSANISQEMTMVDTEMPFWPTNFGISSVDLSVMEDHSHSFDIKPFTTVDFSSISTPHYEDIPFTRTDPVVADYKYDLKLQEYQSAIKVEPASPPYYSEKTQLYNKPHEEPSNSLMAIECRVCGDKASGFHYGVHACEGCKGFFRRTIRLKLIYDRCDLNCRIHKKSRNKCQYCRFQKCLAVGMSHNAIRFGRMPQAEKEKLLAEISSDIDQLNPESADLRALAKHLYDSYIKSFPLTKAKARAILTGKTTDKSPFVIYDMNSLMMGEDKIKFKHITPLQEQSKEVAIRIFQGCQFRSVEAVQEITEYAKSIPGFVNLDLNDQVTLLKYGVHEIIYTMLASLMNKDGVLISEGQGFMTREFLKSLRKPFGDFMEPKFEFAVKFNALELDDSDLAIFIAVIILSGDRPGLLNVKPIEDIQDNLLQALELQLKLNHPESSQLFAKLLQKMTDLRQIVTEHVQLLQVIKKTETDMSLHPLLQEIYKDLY
# Sequence of UniProt Q92731 (Q92731 whole entry, looked up): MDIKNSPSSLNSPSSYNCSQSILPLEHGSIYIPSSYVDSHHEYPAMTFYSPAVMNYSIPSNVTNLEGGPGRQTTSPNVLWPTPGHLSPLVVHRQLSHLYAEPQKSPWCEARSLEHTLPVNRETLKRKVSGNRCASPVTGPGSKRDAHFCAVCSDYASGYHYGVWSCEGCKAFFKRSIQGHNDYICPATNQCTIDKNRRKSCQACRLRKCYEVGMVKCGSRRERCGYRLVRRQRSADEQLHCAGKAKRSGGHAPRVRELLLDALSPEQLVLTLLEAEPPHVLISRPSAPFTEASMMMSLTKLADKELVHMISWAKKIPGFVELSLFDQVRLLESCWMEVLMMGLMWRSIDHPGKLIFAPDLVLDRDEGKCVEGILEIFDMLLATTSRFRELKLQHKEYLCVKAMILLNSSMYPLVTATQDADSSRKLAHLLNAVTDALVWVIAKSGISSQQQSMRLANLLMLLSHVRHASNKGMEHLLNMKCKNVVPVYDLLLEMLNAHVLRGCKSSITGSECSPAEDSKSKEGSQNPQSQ
smiles,measurement,setting,value
CCCCC#Cc1nc(NC)c2ncn([C@@H]3O[C@H](CO)[C@@H](O)C3O)c2n1 (stereo not given in full),Potency,[1],inactive
same,Potency,[2],"inconclusive: 8.41 µM [activator, partial curve]"
CNC(=O)[C@H]1O[C@@H](n2cnc3c(NCc4cccc(I)c4)ncnc32)[C@H](O)C1O (stereo not given in full),Potency,[1],inconclusive: 13.9 µM [inhibitor]
same,Potency,[2],active: 0.944 µM
COc1ccc(C2CNC(=O)C2)cc1OC1CCCC1 (stereo not given),Potency,[3],inactive
same,Potency,[4],inactive
same,Potency,[5],inactive
same,Potency,[6],inactive
same,Potency,[1],inactive
same,Potency,[7],inactive
same,Potency,[8],inactive
same,Potency,[9],inactive
same,Potency,[10],"inconclusive: 13.3 µM [rising, single point]"
C#C[C@]1(O)CC[C@H]2[C@@H]3CCC4=Cc5oncc5CC4(C)[C@H]3CCC21C (stereo not given in full),Potency,[1],active: 16.8 µM
same,Potency,[11],inconclusive: 26.6 µM [cytotoxic]
NCCCC(=O)O,Potency,[12],"inconclusive: 16.8 µM [rising, partial curve, poor fit]"
same,Potency,[13],inactive
same,Potency,[1],inactive
NC(N)=NCc1cccc(I)c1,activation,[14]; activation: at 73.3 µM (top of the series) unless noted,inconclusive: 17.7%
same,activation,[14]; at 73.3 µM (top of the series),inactive: 3.34%
same,Potency,[15],"inconclusive: 26.6 µM [cytotoxic, partial curve, poor fit]"
same,Potency,[16],active: 5.96 µM and active: 8.41 µM
same,Potency,[12],active: 8.41 µM and active: 11.9 µM
same,Potency,[17],"inconclusive: 33.5 µM [cytotoxic] and inconclusive: 26.6 µM [cytotoxic, single point]"
same,Potency,[18],"inconclusive: 21.1 µM [inhibitor, partial curve, poor fit] and inconclusive: 21.1 µM [inhibitor, partial curve]"
same,Potency,[19],inactive
same,Potency,[20],"inconclusive: 29.8 µM [inhibitor, partial curve] and inconclusive: 21.1 µM [inhibitor, partial curve]"
same,Potency,[21],active: 21.1 µM and active: 11.9 µM
same,Potency,[1],inconclusive: 16.2 µM [inhibitor]
same,Potency,[7],inconclusive: 7.22 µM [inhibitor]
